Publication PMC4068158
No constants are given. Whether binding was seen depends on the method and setting. In cells and extracts the contact can be indirect. Some binding calls cover weakened binding; strength is not graded here. For some of these results: Sequences can lack the tags named with a protein.

Amino acid sequences for entries named in this document (tags omitted). A change or cut given only in a name is not applied to a line headed by its entry. Chains listed by the source or under a name are the forms on record and can include a tag or linker. Residues count along the entry.
UniProt Q9UNN5: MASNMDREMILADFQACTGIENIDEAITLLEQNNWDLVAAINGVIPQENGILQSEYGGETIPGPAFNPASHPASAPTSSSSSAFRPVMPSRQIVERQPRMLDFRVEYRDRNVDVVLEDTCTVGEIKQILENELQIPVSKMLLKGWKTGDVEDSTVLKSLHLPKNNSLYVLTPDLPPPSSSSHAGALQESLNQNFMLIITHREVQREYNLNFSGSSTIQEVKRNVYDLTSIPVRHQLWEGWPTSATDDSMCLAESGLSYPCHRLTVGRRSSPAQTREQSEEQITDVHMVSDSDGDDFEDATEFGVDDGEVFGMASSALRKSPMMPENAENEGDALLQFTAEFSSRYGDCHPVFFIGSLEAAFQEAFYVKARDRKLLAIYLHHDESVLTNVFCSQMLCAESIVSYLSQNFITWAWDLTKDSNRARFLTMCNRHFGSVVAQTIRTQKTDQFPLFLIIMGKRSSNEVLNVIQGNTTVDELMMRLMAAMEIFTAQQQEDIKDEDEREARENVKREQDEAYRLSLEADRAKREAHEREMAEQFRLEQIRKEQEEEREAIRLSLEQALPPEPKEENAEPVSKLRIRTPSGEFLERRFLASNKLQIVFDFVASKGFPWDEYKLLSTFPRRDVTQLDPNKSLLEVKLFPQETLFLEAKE
Flag-FAF1 wild type: residues 2-650 of Q9UNN5
Flag-FAF1 with deletion of residues 293 to 301 (Q9UNN5, form named): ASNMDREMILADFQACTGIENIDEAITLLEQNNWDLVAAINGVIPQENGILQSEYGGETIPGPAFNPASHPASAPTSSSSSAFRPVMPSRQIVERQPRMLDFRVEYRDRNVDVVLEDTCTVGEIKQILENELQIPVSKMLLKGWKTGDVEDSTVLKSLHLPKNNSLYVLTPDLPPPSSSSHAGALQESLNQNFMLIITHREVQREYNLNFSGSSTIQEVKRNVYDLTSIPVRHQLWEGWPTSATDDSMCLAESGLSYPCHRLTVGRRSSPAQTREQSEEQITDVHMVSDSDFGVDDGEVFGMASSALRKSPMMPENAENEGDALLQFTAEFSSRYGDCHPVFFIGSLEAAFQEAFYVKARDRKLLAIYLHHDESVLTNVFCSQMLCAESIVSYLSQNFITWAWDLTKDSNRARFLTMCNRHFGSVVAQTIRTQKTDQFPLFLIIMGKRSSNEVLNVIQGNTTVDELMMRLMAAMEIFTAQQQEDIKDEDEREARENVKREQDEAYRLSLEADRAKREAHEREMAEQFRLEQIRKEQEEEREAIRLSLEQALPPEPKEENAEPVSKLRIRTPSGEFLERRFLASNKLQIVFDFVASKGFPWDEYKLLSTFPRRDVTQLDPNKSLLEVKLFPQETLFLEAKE
Flag-FAF1 D295A (Q9UNN5, form named): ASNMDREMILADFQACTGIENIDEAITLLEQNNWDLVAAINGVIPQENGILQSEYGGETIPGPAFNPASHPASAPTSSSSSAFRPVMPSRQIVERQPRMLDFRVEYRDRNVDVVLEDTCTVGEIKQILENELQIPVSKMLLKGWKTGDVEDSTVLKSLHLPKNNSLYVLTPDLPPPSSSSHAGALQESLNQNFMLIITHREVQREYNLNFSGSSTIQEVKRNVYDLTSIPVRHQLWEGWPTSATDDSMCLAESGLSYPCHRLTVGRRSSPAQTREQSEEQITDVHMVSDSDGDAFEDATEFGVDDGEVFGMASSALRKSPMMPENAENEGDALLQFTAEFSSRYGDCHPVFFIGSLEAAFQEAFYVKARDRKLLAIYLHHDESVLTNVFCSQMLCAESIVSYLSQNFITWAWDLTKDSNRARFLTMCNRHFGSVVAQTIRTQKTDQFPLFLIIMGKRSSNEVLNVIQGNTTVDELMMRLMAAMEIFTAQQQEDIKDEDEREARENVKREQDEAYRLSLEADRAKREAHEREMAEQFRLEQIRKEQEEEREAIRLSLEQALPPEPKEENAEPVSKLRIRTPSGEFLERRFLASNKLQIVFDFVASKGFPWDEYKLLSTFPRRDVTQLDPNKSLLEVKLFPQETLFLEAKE
Flag-FAF1 P620G (Q9UNN5, form named): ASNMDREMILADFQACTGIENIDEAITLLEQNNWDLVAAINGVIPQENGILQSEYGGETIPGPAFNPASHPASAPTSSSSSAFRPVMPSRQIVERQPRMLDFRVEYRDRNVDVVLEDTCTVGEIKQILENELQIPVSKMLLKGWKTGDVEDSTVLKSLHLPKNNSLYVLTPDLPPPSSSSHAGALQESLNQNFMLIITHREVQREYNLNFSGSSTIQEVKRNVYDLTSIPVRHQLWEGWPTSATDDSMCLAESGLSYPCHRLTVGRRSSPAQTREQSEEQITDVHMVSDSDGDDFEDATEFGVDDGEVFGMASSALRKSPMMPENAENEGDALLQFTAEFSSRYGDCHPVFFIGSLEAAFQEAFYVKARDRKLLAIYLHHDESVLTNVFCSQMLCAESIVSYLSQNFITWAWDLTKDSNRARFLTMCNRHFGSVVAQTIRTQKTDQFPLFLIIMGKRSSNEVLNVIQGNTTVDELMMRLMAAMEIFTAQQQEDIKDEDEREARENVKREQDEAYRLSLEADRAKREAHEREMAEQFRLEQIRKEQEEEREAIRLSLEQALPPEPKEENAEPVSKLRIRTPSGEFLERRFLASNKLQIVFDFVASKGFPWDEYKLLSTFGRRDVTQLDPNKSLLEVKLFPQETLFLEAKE
UniProt O43681: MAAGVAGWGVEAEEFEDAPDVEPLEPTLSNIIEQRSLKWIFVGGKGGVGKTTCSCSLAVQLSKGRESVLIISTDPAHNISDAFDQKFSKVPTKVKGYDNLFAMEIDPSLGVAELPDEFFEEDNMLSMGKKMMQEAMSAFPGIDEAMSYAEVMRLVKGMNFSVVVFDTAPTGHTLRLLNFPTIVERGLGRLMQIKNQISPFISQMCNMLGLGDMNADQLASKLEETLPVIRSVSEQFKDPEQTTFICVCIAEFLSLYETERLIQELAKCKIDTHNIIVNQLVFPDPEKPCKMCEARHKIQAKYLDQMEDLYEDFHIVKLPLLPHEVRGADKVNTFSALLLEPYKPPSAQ
UniProt O95292: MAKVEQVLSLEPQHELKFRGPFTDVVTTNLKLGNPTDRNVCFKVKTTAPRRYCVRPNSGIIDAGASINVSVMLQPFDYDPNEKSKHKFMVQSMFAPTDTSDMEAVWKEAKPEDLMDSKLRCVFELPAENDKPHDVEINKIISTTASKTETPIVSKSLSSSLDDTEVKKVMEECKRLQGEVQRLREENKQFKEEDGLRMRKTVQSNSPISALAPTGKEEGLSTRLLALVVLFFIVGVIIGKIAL

Assays:
[1] = target: endogenous FAF1 (human cells) (human (endogenous in U2OS, HeLa, SH-SY5Y)) (UniProt Q9UNN5); experiment: co-IP; endogenous FAF1 immunoprecipitated from U2OS lysates with sheep anti-FAF1 antibody and Protein A-Sepharose, sheep IgG as control
[2] = target: Flag-ASNA1 wild type (human) (UniProt O43681); experiment: co-IP; anti-Flag M2 beads on lysates of U2OS cells expressing the Flag-tagged bait (transfected or tetracycline-induced); buffer A (50 mM HEPES/KOH pH 7.2, 5 mM Mg(OAc)2, 70 mM KOAc, 0.2% Triton X-100, 10% glycerol, 0.2 mM EDTA), 4°C, 2 hr; endogenous prey by immunoblot; cells untreated, treated with MG132 or with siRNA (FAF1, p97, ASNA1, luciferase) as indicated
[3] = target: Flag-FAF1 with deletion of residues 293 to 301 (human) (UniProt Q9UNN5); experiment: as above
[4] = target: Flag-FAF1 wild type (human) (UniProt Q9UNN5); experiment: as above
[5] = target: T1, Flag-RAB3GAP1 wild type (human) (UniProt Q15042); experiment: as above
T1 sequence: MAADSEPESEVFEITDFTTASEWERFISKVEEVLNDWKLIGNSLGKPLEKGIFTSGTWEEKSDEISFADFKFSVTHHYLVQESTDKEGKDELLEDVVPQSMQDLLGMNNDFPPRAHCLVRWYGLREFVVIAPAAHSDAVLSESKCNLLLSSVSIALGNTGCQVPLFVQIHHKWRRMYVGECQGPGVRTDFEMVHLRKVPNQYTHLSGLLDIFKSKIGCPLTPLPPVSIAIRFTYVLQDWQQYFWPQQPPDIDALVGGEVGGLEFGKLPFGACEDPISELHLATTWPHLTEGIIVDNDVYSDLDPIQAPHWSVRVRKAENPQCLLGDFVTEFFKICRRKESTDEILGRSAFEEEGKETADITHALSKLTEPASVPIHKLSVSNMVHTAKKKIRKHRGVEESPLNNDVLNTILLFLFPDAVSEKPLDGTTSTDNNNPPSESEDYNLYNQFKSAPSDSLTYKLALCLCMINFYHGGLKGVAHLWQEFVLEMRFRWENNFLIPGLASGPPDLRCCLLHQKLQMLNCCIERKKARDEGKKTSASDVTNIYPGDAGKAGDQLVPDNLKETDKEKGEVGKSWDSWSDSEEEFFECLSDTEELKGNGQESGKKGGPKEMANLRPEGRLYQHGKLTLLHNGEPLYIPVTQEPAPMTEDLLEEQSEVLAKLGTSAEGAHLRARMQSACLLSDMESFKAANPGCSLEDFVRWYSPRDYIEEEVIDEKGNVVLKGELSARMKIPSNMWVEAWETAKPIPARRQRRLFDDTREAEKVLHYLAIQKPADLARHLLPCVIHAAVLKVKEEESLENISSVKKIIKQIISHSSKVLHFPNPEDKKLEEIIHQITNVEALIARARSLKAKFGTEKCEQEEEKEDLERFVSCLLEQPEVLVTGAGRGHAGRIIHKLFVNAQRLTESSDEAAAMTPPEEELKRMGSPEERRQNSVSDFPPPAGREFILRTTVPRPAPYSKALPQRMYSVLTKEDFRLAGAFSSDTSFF

Flag-FAF1 D295A (human) = Flag-FAF1 D295A (human) (UniProt Q9UNN5); experiment: as above
Flag-FAF1 P620G (human) = Flag-FAF1 P620G (human) (UniProt Q9UNN5); experiment: as above
[6] = target: Flag-ASNA1 wild type (human) (UniProt O43681); experiment: co-IP; anti-Flag beads on lysates of SH-SY5Y cells expressing wild-type or mutant Flag-ASNA1; cells treated with MG132 (untreated lanes beside them); immunoblot
Flag-ASNA1 G46R (human) = Flag-ASNA1 G46R (human) (UniProt O43681); experiment: as above
Flag-ASNA1 G46A (human) = Flag-ASNA1 G46A (human) (UniProt O43681); experiment: as above

endogenous VAPB (human cells) (from UniProt O95292 1-243)
binding [1]: binds
binding [2]: binds
binding [3]: no binding
binding [4]: binds
binding [5]: binds
binding (Flag-FAF1 D295A (human)): binds
binding (Flag-FAF1 P620G (human)): binds
binding [6]: binds
binding (Flag-ASNA1 G46R (human)): binds
binding (Flag-ASNA1 G46A (human)): binds
